According to the supplement of paper PMC9433436:
± gives the standard deviation of the averaged measurements. In all, about 4,100 sequences were measured (“relative kcat/Km (krel) vs genomic leader AAAGAU”: median about 1.7, highest 2% from about 6.5 on). This is a selection; strong and weak results do not stand in their true shares.

Target: T1, E. coli RNase P holoenzyme (M1 P RNA + rnpA protein) (UniProt P0A7Y8)
T1 sequence: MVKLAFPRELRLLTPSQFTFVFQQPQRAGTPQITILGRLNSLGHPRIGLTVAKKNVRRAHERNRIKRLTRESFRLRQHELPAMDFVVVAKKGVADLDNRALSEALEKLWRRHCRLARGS
Assay: relative kcat/Km (krel) vs genomic leader AAAGAU (relative (reference leader = 1)); higher = faster RNase P cleavage
Description: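 HTS-Kin: a pool of ptRNA-Met (21C construct) with all 4096 combinations of 5' leader nucleotides N(-6) to N(-1) was processed in vitro by E. coli RNase P (P RNA + rnpA/C5 protein) under multiple-turnover conditions at 37 C, pH 8, 17.5 mM MgCl2. Residual substrate was Illumina-sequenced at several fractions reacted, and relative kcat/Km (krel) was computed by internal competition kinetics, calibrated to the genomic leader (AAAGAU = 1). The listed hexamer is the varied N(-6)..N(-1) leader (DNA letters), and it sits between a fixed 5' stem-loop flank (GCAUGCACGAAAGUGCGUGCUAUGAA) and the mature tRNA-Met starting GGCUACGUAGCUCAGUUGG. Two technical replicates are averaged.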

[1] = fraction of substrate reacted: ~9-10% (9.79% repeat 1, 9.1% repeat 2)
[2] = fraction of substrate reacted: ~13-16% (15.68% repeat 1, 13.17% repeat 2)
[3] = fraction of substrate reacted: ~26-29% (28.66% repeat 1, 26.4% repeat 2)

| Sequence | relative kcat/Km [1] | relative kcat/Km [2] | relative kcat/Km [3] |
| --- | --- | --- | --- |
| TCAAAT | 2.26 ± 0.96 | 2.1 ± 0.13 | 2.86 ± 0.78 |
| ACAATC | 1.33 ± 0.61 | 2.25 ± 0.4 | 2.41 ± 0.74 |
| ATAGTA | 1.68 ± 0.35 | 1.78 ± 0.51 | 1.88 ± 1 |
| GTTAAT | 2.98 ± 0.76 | 3.77 ± 0.95 | 5.2 ± 2.3 |
| TGGGGG | – | – | 1.4 ± 1.3 |
| AGGAGG | – | – | 1.05 ± 0.058 |
| AGCTGA | 1.24 ± 0.13 | 1.3 ± 0.083 | 3.06 ± 1.6 |
| AGCATT | 1.76 ± 0.31 | 2.58 ± 0.046 | 3.56 ± 1.5 |
| CCCCAG | 0.952 ± 0.62 | 0.951 ± 0.43 | 2.51 ± 0.072 |
| TATGTA | 1.25 ± 0.51 | 1.07 ± 0.38 | 2.04 ± 0.57 |
| CTGTTC | 2.19 ± 0.66 | 2.04 ± 0.062 | 2.45 ± 0.29 |
| GACCTC | 2.41 ± 0.81 | 2.49 ± 0.041 | 3.63 ± 0.74 |
| AGTAAC | 2.95 ± 1.2 | 3.66 ± 0.26 | 5.6 ± 2.4 |
| CGACCA | 1.67 ± 0.099 | 1.37 ± 0.59 | 1.55 ± 0.46 |
| ATCATG | – | 1.92 ± 0.8 | 3.1 ± 0.61 |
| GTAAGA | 3.03 ± 2.2 | 2.71 ± 0.77 | 3.58 ± 0.33 |
| GAGACA | 0.931 ± 0.17 | 1.11 ± 0.3 | 1.63 ± 0.39 |
| CGTGCA | 0.898 ± 0.71 | 1.43 ± 0.72 | 1.57 ± 0.55 |
| ACACCA | 1.49 ± 1.4 | 1.51 ± 0.16 | 1.3 ± 0.2 |
| TGTGAC | 2.05 ± 0.71 | 2.7 ± 0.56 | 3.24 ± 1.1 |
| CCTATC | 1.89 ± 0.98 | 2.43 ± 0.11 | 2.74 ± 0.88 |
| CCATCC | 3.11 ± 1 | 2.25 ± 0.14 | 3.75 ± 0.9 |
| ATATAT | 3 ± 0.9 | 4.49 ± 0.51 | – |
| GGATTG | – | 0.596 ± 0.058 | 0.73 ± 0.62 |
| GAGTCT | 1.46 ± 0.081 | 2.35 ± 0.1 | 2.66 ± 0.65 |

| Sequence | relative kcat/Km [1] | relative kcat/Km [2] | relative kcat/Km [3] |
| --- | --- | --- | --- |
| TAGTCA | 2 ± 1 | 2.4 ± 0.28 | 3.09 ± 0.91 |
| CCAACC | – | 1.11 ± 0.49 | 1.3 ± 0.39 |
| ACCTTA | 3.48 ± 1.9 | 3.04 ± 0.036 | 4.62 ± 1.8 |
| TTAAGC | 2.38 ± 1.3 | 2.41 ± 0.11 | 3.2 ± 1.2 |
| CATCTT | 1.77 ± 0.57 | 2.05 ± 0.29 | 3.7 ± 1.5 |
| CCCATA | 2.83 ± 1.3 | 3.03 ± 0.6 | 4.43 ± 1.7 |
| GATTCC | 2.17 ± 0.93 | 2.13 ± 0.22 | 2.93 ± 0.71 |
| GTGGCC | 0.764 ± 0.16 | 0.924 ± 0.51 | – |
| ACCGCC | 2.87 ± 1.1 | 2.93 ± 0.072 | 4.69 ± 1 |
| TACTTA | 3.1 ± 0.66 | 4.1 ± 0.88 | 5.63 ± 2.6 |
| CCCCGC | 2.14 ± 1.4 | 2.8 ± 0.83 | 4.54 ± 1.6 |
| TGACAA | 3.11 ± 2.1 | 3.72 ± 0.47 | 4.23 ± 1.4 |
| CGTTTG | 1.08 ± 0.88 | – | 1.88 ± 0.24 |
| TGCTGG | 0.26 ± 0.16 | – | 0.292 ± 0.1 |
| TACATT | 3.85 ± 1.4 | 5.11 ± 0.79 | 7.56 ± 3.7 |
| CGGGTA | – | – | 0.95 ± 0.89 |
| GGTTTC | 1.08 ± 0.39 | 1.01 ± 0.41 | 1.32 ± 0.084 |
| CCTCTA | 1.15 ± 0.22 | 1.13 ± 0.42 | 1.49 ± 0.084 |
| TCTAGA | 2.83 ± 0.24 | 3.36 ± 0.14 | 4.61 ± 1.9 |
| GTTCCT | 2.61 ± 0.67 | 2.55 ± 0.21 | 3.41 ± 1.4 |
| AGCGTC | 2.03 ± 0.35 | 1.43 ± 0.14 | 1.79 ± 0.62 |
| CGCGCG | 1.98 ± 1.4 | 1.14 ± 0.35 | 1.59 ± 0.48 |
| TTTCTC | 2.12 ± 0.99 | 2.29 ± 0.41 | 2.91 ± 0.93 |
| AGTACG | – | – | 1.87 ± 0.11 |
| ATTATT | 2.11 ± 1.1 | 2.59 ± 0.18 | 3.61 ± 1.5 |
